Reference: paper PMC6919601, “Identification of Plasmodium dipeptidyl aminopeptidase allosteric inhibitors by high throughput screening” (PLoS ONE, 2019)
Out of some 110,000 compounds screened, about 230 (0.21%) showed an effect of 50% or more. Some of the results follow.

biological target: DPAP1 (Plasmodium falciparum, UniProt Q8IIJ9); experiment: primary screen, percent inhibition; read by cleavage of a fluorogenic dipeptide substrate; higher = more effect of the substance; design: species or system P. falciparum D10 trophozoite lysates; single well
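Note: 30 min substrate incubation versus DMSO and 10 µM JCP410 controls.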

Sequence of DPAP1 (Q8IIJ9 whole entry, looked up): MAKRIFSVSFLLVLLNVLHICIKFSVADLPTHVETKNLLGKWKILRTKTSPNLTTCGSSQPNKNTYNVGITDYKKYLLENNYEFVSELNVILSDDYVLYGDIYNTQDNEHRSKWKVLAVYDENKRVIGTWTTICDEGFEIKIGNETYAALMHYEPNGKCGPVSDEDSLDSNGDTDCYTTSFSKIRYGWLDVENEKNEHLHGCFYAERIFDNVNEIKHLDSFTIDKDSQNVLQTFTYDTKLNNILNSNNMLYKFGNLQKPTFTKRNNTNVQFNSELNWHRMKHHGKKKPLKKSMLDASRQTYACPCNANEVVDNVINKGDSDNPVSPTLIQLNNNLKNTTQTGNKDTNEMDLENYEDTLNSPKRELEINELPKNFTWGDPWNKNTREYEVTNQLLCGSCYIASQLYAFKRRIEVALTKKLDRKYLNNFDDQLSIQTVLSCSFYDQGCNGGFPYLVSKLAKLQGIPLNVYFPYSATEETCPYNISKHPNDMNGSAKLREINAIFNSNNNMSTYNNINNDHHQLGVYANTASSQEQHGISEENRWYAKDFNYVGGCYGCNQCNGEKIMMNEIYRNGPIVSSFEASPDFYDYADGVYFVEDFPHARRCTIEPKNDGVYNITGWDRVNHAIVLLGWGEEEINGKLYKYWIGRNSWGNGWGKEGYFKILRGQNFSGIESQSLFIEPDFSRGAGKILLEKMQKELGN

Compound	% Inhibition @ 10 uM [%]
CCOc1ccc(CN2CCSCC2)cc1	4.66
COc1cc(/C=C2\CCc3ccccc3C2=O)cc(OC)c1OC	5.5
c1ccc(N2CCN(Cc3ccoc3)CC2)cc1	-2.81
COCCCNC(=O)C1CCN(C(=O)c2sccc2-n2cccc2)CC1	-7.02
Cc1nc2ccc3c(ccc4nc(C)sc43)c2s1	-8.12
COc1ccc(NC(=O)/C(=C/c2ccco2)NC(=O)c2ccco2)cc1	1.01
N#CC1=C(N)N(c2ccccc2)C2=C(C(=O)CCC2)C1c1ccc(F)cc1 (stereo not shown)	-1.08
COc1ccc(C(=O)Nc2nc(-c3nnn(-c4cccc(C(F)(F)F)c4)c3C)ns2)cc1	-1.2
NS(=O)(=O)c1ccc(NC(=O)COc2ccccc2)cc1	-1.46
Cc1cc(Cl)ccc1OCC(=O)Nc1nc2nc(-c3ccccc3)cc(O)n2n1	3.66
CN1CCN(c2ccc(NC(=O)c3ccc(Br)o3)cc2)CC1	-8.06
O=C(NC1CCCCC1)c1ccccc1NC(=O)C1CC1	3.48
CCc1ccc(Sc2cc(C(=O)NCCOC)c3ccccc3n2)cc1	-0.0542
COc1cccc(Cn2c(C)c(CNCCc3ccco3)c(C(=O)O)c2C)c1	-7.36
Cc1ccc(C)c(S(=O)(=O)NCc2ccc(C(=O)N3CCOCC3)cc2)c1	-1.04
COc1ccc(C2C3=C(O)CCCC3=NC(C)=C2C(=O)Nc2ccc(F)cc2F)c(OC)c1 (stereo not shown)	-1.07
CCCNC(=O)c1ccc(CS(=O)c2ccc(Br)cc2)o1 (stereo not shown)	-6.05
CCC[C@@H](NC(=O)[C@H](CC1CCCCC1)NS(C)(=O)=O)C(=O)c1nc2ccccc2o1	-3.49
O=C(c1ccc2c(c1)nc(S)n1c3ccccc3nc21)N1CCN(C(=O)c2ccco2)CC1	2.56
CCN(CC)S(=O)(=O)c1ccc(N/C=C2/C(=O)NC(=O)N(c3ccc(C)cc3)C2=O)cc1	-1.07
COc1ccc(C(=O)N(Cc2ccccc2)c2ccccn2)cc1Cl	-5.18
COc1cccc(CNCc2cccnc2)c1OCc1ccc(F)cc1	-2.22

Compound	% Inhibition @ 10 uM [%]
CC1=CCN(C(C)(C)C)CC1=O	5.2
CCC(=O)c1ccc(C2CCCCC2)cc1	1.03
CC1(C)CC(O)=C/C(=N/CCN2CCOCC2)C1	0.385
CCOC(=O)C1=C(C)NC(=O)/C1=C\c1cccs1	-0.267
CC(C)(C)OC(=O)NCC(=O)NCCc1nc2ccccc2[nH]1	-0.0735
FC(F)(F)C(Oc1nc(N2CCOCC2)nc(-n2nnc3ccccc32)n1)C(F)(F)F	-4.24
Cc1cc(C)c(NC(=O)C2CCCN2C2CCCCC2)c(C)c1 (stereo not shown)	2.94
O=c1c(CN2CCN(c3ccc(F)cc3)CC2)coc2ccccc12	-8.28
OC1CCCN(Cc2ccccc2)C1 (stereo not shown)	-3.56
COC(=O)c1cc(=O)n(C2CCCCC2)/c(=N/C2CCCCC2)s1	-3.45
CC(C)C[C@H](NC(=O)N1CCN(c2ccccc2O)CC1)C(=O)NCC#N	-3.48
CC(=O)N1CCN(CC(O)COc2ccc(C)cc2)CC1 (stereo not shown)	-1.06
O=C(O)/C=C/c1coc2ccc(Cl)cc2c1=O	-3.96
CCOc1ccc(C2=CC(c3cccc(OC)c3OC)n3nnnc3N2)cc1Cl (stereo not shown)	-0.125
COc1cccc(N2CCN(CC(=O)Nc3nc4c(s3)CC(C)CC4)CC2)c1 (stereo not shown)	1.84
CC(=O)Nc1ccc2nc(C)ccc2c1	0.00784
Cc1ccc(S(=O)(=O)Nc2cccc3cccnc23)s1	-2.74
Cc1ccc(-n2nc(C)c3c(-c4ccccc4)ccnc32)cc1	2.29
O=C(CCc1nc(CN2CCN(C(=O)c3ccc(Br)cc3)CC2)no1)N1CCOCC1	-2.56
Cc1cc(C)cc(NC(=O)c2cccnc2Cl)c1	0.826
O=C(Nc1cccnc1)C1CCCN(S(=O)(=O)c2cccc3nsnc23)C1 (stereo not shown)	-6.62
COc1ccc2c(c1)C(N1CCN(CCO)CC1)Cc1cc(Cl)ccc1S2 (stereo not shown)	-9.24

Compound	% Inhibition @ 10 uM [%]
O=C(NCCCN1CCOCC1)c1cc2nc(-c3cccs3)cc(C(F)(F)Cl)n2n1	1.92
c1ccc(-n2cccc2CNC2CCCCC2)cc1	-6.18
CCN1C(=O)N/C(=C/c2cc(Cl)ccc2OC)C1=O	-9.24
CC(NC(=O)CCCn1ncn2c(cc3occc32)c1=O)c1ccc2c(c1)OCCO2 (stereo not shown)	-5.63
Cc1cc2c(c(SCC(=O)c3ccccc3)n1)C(=O)O/C2=C\c1c(C)[nH]c(C#N)c1C	14.9
COc1ccc(CCNC(=O)CSC2=C(C#N)C(c3ccccc3F)CC(=O)N2)cc1 (stereo not shown)	2.75
Cc1c(C)n(C(=O)CN2CCN(Cc3ccc4c(c3)OCO4)CC2)c2ccccc12	-4.51
O=C(Nc1ccccc1C(F)(F)F)Nc1cccc2ccccc12	-2.18
CCCCSc1nc2ccc(N3C(=O)c4ccccc4C3=O)cc2s1	3.83
CC12CCC(C(=O)O)(c3nc4cc(Cl)c(Cl)cc4nc31)C2(C)C (stereo not shown)	3.67
Cc1nc2sc3c(c2c(=O)o1)CCCCC3	-1.59
Cc1cc(/C=C2/SC(=O)NC2=O)c(C)n1-c1ccc(Br)cc1	19.3
CCOCCO/C(O)=C1\C(C)=NC2=C(C(=O)CC(C)(C)C2)C1c1cccc(OC)c1 (stereo not shown)	-1.03
COc1ccc(NC(=O)c2ccccc2F)cc1OC	-2.36
Cc1sc(NC(=O)CCCC(=O)O)nc1-c1ccccc1	-2.87
COc1ccc2nc(NC(=O)CN(C)S(=O)(=O)c3ccc4nc(C)sc4c3)sc2c1	4.33
C#CCSc1nc2c(c(=O)n1-c1ccc(C)cc1)C1(CCCC1)Cc1ccccc1-2	1.27
Cc1ccc(-c2cc(C(=O)Nc3ccc(S(N)(=O)=O)cc3)c3ccccc3n2)cc1C	-3.45
CCOC(=O)N1CCN(c2nc(-c3ccc(OC)cc3)cc(C(F)(F)F)n2)CC1	3.97
CCSCCOC(=O)C1=C(C)NC(=O)CC1c1ccc(Cl)cc1Cl (stereo not shown)	2.54
